The source of these data is PubChem BioAssay AID1745853 (National Center for Advancing Translational Sciences (NCATS), 2022).

The structures appear in SMILES notation. This is one part of the list. The main result of the screen is listed elsewhere. These columns were measured beside it and carry no call.

Holding throughout (experiment): Primary Screen for Target Class Profiling of Small Molecule Inhibitors of Methyltransferases
The target of assay [1] is Glycine N-methyltransferase (Homo sapiens) (UniProt Q14749). Conditions: purified enzyme, MTase-Glo SAH luminescence; measured here: GNMT inhibition; at 40 µM; stronger effect = lower value. An outline of the steps: (§1)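 Each enzyme was reacted with SAM and its substrate, with compounds tested once at 40 uM; SAH formed was read by MTase-Glo luminescence.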
Assay [2] has as its target Guanidinoacetate N-methyltransferase (Homo sapiens) (UniProt Q14353). Conditions: purified enzyme, MTase-Glo SAH luminescence; measured here: GAMT inhibition; at 40 µM; stronger effect = lower value. An outline of the steps:
as §1

In assay [3] the target is Histamine N-methyltransferase (Homo sapiens) (UniProt P50135). Conditions: purified enzyme, MTase-Glo SAH luminescence; measured here: HNMT inhibition; at 40 µM; stronger effect = lower value. An outline of the steps:
as §1

Assay [4] addresses Nicotinamide N-methyltransferase (Homo sapiens) (UniProt P40261). Conditions: purified enzyme, MTase-Glo SAH luminescence; measured here: NNMT inhibition; at 40 µM; stronger effect = lower value. An outline of the steps: as §1
Assay [5] concerns the target Phenylethanolamine N-methyltransferase (Homo sapiens) (UniProt P11086). As to conditions: purified enzyme, MTase-Glo SAH luminescence; measured here: PNMT inhibition; at 40 µM; stronger effect = lower value. An outline of the steps: as §1
On the % scale 0 is the no-effect control and ±100 the full control effect.

As for `CCCn1c(=O)c2ccc(C(=O)NCC(C)C)cc2n2c(SCC(=O)Nc3ccc(F)cc3)nnc12`, the activity change, negative = inhibition was 1.89% in assay [1]; 0% in assay [2]; 1.5% in assay [3]; -3.68% in assay [4]; 1.25% in assay [5].

On to `CN1CCN(C(=O)C2CCCCC(=O)N2)CC1` (stereo not given), for which the activity change, negative = inhibition in assay [1] was 0.356%; in assay [2], 0.511%; in assay [3], 0.199%; in assay [4], 3.93%; in assay [5], -0.419%.

With `O=C(NCc1ccc(F)cc1)c1nc2sccn2c1Br`, the activity change, negative = inhibition in assay [1] is -3.42%; in assay [2] it was -4.52%; in assay [3], -0.868%; in assay [4], -5.66%; in assay [5], -2.23%.

In the case of `COc1ccc(S(=O)(=O)N2CCC(OC3CCN(C)CC3)CC2)cc1`, the activity change, negative = inhibition in assay [1] was 2.07%; in assay [2] it was 0%; in assay [3], 7.63%; in assay [4] it was 10.3%; in assay [5], 6.58%.

Consider `O=C(COc1ccccc1)NCC1CCCCC(=O)N1` (stereo not given), for which the activity change, negative = inhibition was -5.75% in assay [1]; -7.26% in assay [2]; -1.62% in assay [3]; -8.79% in assay [4]; -1.11% in assay [5].

Consider `C=C(C)[C@@H]1CC[C@]2(C(=O)O)CC[C@]3(C(=O)O)[C@H](CCC4[C@@]5(C)CCC(=O)C(C)(C)C5CC[C@]43C)C12` (stereo not given in full), for which the activity change, negative = inhibition in assay [1] is -5.31%; in assay [2], -7.98%; in assay [3], -0.84%; in assay [4], -17.6%; in assay [5], -16.1%.

As for `CC1(C(=O)NC2CCCCCCC2)Cn2c(ccc2-c2ccco2)C(=O)N1Cc1cccnc1` (stereo not given), the activity change, negative = inhibition is -4.14% in assay [1]; 1.78% in assay [2]; -1.62% in assay [3]; -4.77% in assay [4]; -5.31% in assay [5].

As for `CCOC(=O)c1cc2n(n1)CC(C)(C(=O)NC1CCC(C)CC1)N(Cc1cccc(C)c1)C2=O` (stereo not given), the activity change, negative = inhibition in assay [1] was 3.7%; in assay [2], 5.69%; in assay [3], 2.04%; in assay [4] it was -11.3%; in assay [5], 2.29%.

With `CCOCCCNC(=O)c1cc2n(n1)CC(C)(C(=O)NCCC(C)C)N(C)C2=O` (stereo not given), the activity change, negative = inhibition in assay [1] was -1.68%; in assay [2] it was 3.51%; in assay [3], 1.14%; in assay [4] it was -3.4%; in assay [5], 0.63%.

For `COc1ccc(CN2Cc3[nH]cnc3C[C@H]2C(=O)N2CCC(Cc3ccccc3)CC2)cc1`, the activity change, negative = inhibition is -11.1% in assay [1]; -12.5% in assay [2]; -11% in assay [3]; -21.7% in assay [4]; -16.9% in assay [5].

Take `CC(=O)OC[C@]12[C@H](OC(C)=O)[C@H](OC(=O)c3ccccc3)[C@@H]3[C@@H](OC(C)=O)[C@]1(OC3(C)C)[C@H](C)C[C@H](OC(=O)c1ccccc1)[C@@H]2OC(=O)c1ccccc1`: the activity change, negative = inhibition in assay [1] was 0%; in assay [2] it was -15.3%; in assay [3], 11%; in assay [4], -20.7%; in assay [5] it was -5.35%.

With `COc1ccc(C)c2sc(NC(=O)c3ccncc3)nc12`, the activity change, negative = inhibition in assay [1] is -6.53%; in assay [2] it was -3.9%; in assay [3], 9.13%; in assay [4] it was -17.7%; in assay [5], -2.89%.

Turning to `CC(C)=CCC/C(C)=C/CC/C(C)=C/COC1OC(COC2OCC(OC3OCC(O)C(O)C3O)C(O)C2O)C(O)C(OC2OC(C)C(OC3OC(C)C(OC4OCC(OC5OC(C)C(O)C(O)C5O)C(O)C4O)C(O)C3O)C(O)C2O)C1O` (stereo not given), the activity change, negative = inhibition in assay [1] is -17.2%; in assay [2], 0.337%; in assay [3], -4.68%; in assay [4], -11.5%; in assay [5] it was 3.11%.

In the case of `Cc1ccc(C)c(NC(=O)N2CCC(n3cnnc3C3CC3)C2)c1` (stereo not given), the activity change, negative = inhibition was -1.82% in assay [1]; 0.364% in assay [2]; 1.58% in assay [3]; 1.22% in assay [4]; 15.6% in assay [5].

With `CC1=CC2/C=C(\C)CCC(O)C(=O)C(O)CC(=O)C23C(=O)NC(CC(C)C)C3C1C` (stereo not given), the activity change, negative = inhibition is -1.77% in assay [1]; 0.117% in assay [2]; 11.7% in assay [3]; -14.7% in assay [4]; -9.18% in assay [5].
